We go through 153 variants from a collection of fitness landscapes (doi:10.1016/j.celrep.2020.107928).

Whole data set: some 81,000 sequences, median “one-hybrid fitness for binding parS DNA” near -0.17, cut for the highest 2% near 0.51. The list shows a part of the results. A value given as a limit tells only on which side of the number the result lay.

The labels stand for the following.
B1: Caulobacter ParB omega fusion; a variant is named by its letters at X, in order, B8GW30 (parent)
chain: MESVVVGEPGMSEGRRGLGRGLSALLGEVDAAPAQAPGEQLGGSREAPIEILQRNPDQPRRTFREEDLEDLSNSIREKGVLQPILVRPSPDTAGEYQIVAGERAWRAAQRAGLKTVPIMVRELDDLAVLEIGIIENVQRADLNVLEEALSYKVLMEKFERTQENIAQTIGKSXSHVANXMRLLXLPDEVQSYLVSGELTAXHARAIAAAADPVALAKQIIEGGLSVRETEALARKAPNLSAGKSKGGRPPRVKDTDTQALESDLSSVLGLDVSIDHRGSTGTLTITYATLEQLDDLCNRLTRGI

The variants in this experiment derive from B1. Briefly: one-hybrid fitness for binding parS DNA (scaled: cognate 1, non-cognate 0); higher = stronger binding. The following applies: with parS DNA site. The essentials: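 Bacterial one-hybrid selection in E. coli USO rpoZ- hisB- pyrF- with a HIS3 reporter carrying the site 19 bp from the promoter, screening Caulobacter ParB libraries with four specificity codons randomised (NNS). Cells grew 48 hours at 37°C on M9-minus-histidine plus 0.1 mM IPTG and 5 mM 3-AT. Plasmids before and after selection were Illumina-sequenced, three replicate libraries pooled, and variants under 10 reads dropped. Fitness is the log change in variant-to-wild-type read ratio, rescaled to cognate 1, non-cognate 0.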
FPSI: the “one-hybrid fitness for binding parS DNA” value is not above 0.2.

As for AFYR, the “one-hybrid fitness for binding parS DNA” value was not above 0.2. In the case of LSFR, the “one-hybrid fitness for binding parS DNA” value was not above 0.2. Next, TYKT: not above 0.2; AVVG: not above 0.2. Consider PNSR, for which the “one-hybrid fitness for binding parS DNA” value is not above 0.2. To HQDK belongs 0.258; to ADTT, not above 0.2.

Take WHVF: the “one-hybrid fitness for binding parS DNA” value was not above 0.2.

As to ALLL, the “one-hybrid fitness for binding parS DNA” value was not above 0.2. In the case of TNPS, the “one-hybrid fitness for binding parS DNA” value was not above 0.2.

Consider IGDM, for which the “one-hybrid fitness for binding parS DNA” value is not above 0.2. To QYFR belongs not above 0.2; to IYVL, not above 0.2; to ESIK, not above 0.2. To WPKW belongs not above 0.2; to KRYA, not above 0.2; to YQYG, not above 0.2.

Consider PAGF, for which the “one-hybrid fitness for binding parS DNA” value is not above 0.2.

In the case of DFLN, the “one-hybrid fitness for binding parS DNA” value is not above 0.2.

Regarding MVSV, the “one-hybrid fitness for binding parS DNA” value was not above 0.2. To HKTG belongs not above 0.2; to QCEK, not above 0.2. To ITFY belongs not above 0.2. Next, CLWR: not above 0.2; YEDC: not above 0.2; ESNE: not above 0.2. With DRAL, the “one-hybrid fitness for binding parS DNA” value was not above 0.2. Next, TFFP: not above 0.2.

As for PYLP, the “one-hybrid fitness for binding parS DNA” value is not above 0.2.

As for VFKG, the “one-hybrid fitness for binding parS DNA” value is not above 0.2. Next, IIMD: not above 0.2; CLDL: not above 0.2; ARIC: not above 0.2. Take WGSD: the “one-hybrid fitness for binding parS DNA” value was not above 0.2. On to SWRG, for which the “one-hybrid fitness for binding parS DNA” value is not above 0.2.

PVPW: the “one-hybrid fitness for binding parS DNA” value is not above 0.2. For AERT, the “one-hybrid fitness for binding parS DNA” value was not above 0.2. As to PPKM, the “one-hybrid fitness for binding parS DNA” value was not above 0.2.

As for QYPI, the “one-hybrid fitness for binding parS DNA” value is not above 0.2. Take PLGW: the “one-hybrid fitness for binding parS DNA” value is not above 0.2. To GRPN belongs not above 0.2; to TKHR, not above 0.2; to FRKR, not above 0.2.

With YPMK, the “one-hybrid fitness for binding parS DNA” value is not above 0.2. As to VNEG, the “one-hybrid fitness for binding parS DNA” value is not above 0.2. Regarding HPHL, the “one-hybrid fitness for binding parS DNA” value was not above 0.2. To RYLL belongs not above 0.2.

Turning to HPVL, the “one-hybrid fitness for binding parS DNA” value is not above 0.2.

HSNP: the “one-hybrid fitness for binding parS DNA” value is not above 0.2.

As to NTRM, the “one-hybrid fitness for binding parS DNA” value was not above 0.2. To HCNF belongs not above 0.2; to HRFC, 0.213. To KATS belongs not above 0.2; to TLDY, not above 0.2.

On to QGMN, for which the “one-hybrid fitness for binding parS DNA” value was not above 0.2. Turning to WSDG, the “one-hybrid fitness for binding parS DNA” value was not above 0.2. Consider QTLH, for which the “one-hybrid fitness for binding parS DNA” value was not above 0.2. Regarding GDHA, the “one-hybrid fitness for binding parS DNA” value was not above 0.2. Regarding RLDN, the “one-hybrid fitness for binding parS DNA” value was found to be 0.416. Regarding DVYE, the “one-hybrid fitness for binding parS DNA” value is not above 0.2.

Regarding ATHP, the “one-hybrid fitness for binding parS DNA” value is not above 0.2. For the variant VPGS, the “one-hybrid fitness for binding parS DNA” value was not above 0.2. As to PVDN, the “one-hybrid fitness for binding parS DNA” value was not above 0.2.

Take RKNN: the “one-hybrid fitness for binding parS DNA” value was found to be 0.327. Next, RVCK: not above 0.2. Next, VLFR: not above 0.2; YAMR: not above 0.2.

Take LNAS: the “one-hybrid fitness for binding parS DNA” value was not above 0.2. Consider YIPS, for which the “one-hybrid fitness for binding parS DNA” value is not above 0.2. To STMN belongs not above 0.2; to TPSW, not above 0.2; to RSGE, not above 0.2.

In the case of TLLD, the “one-hybrid fitness for binding parS DNA” value was not above 0.2. To RVCH belongs not above 0.2. To RCRC belongs 0.863. To PTLQ belongs not above 0.2; to AMSG, not above 0.2. For the variant HKSN, the “one-hybrid fitness for binding parS DNA” value is not above 0.2. To NMWG belongs not above 0.2; to LRET, not above 0.2. As to SVRD, the “one-hybrid fitness for binding parS DNA” value was not above 0.2. As for VTAQ, the “one-hybrid fitness for binding parS DNA” value is not above 0.2. Next, SQPH: not above 0.2.

As for RRCC, the “one-hybrid fitness for binding parS DNA” value turned out to be 0.619.

RGRH: the “one-hybrid fitness for binding parS DNA” value was not above 0.2. To ILFS belongs not above 0.2; to HVER, not above 0.2; to HKLV, not above 0.2. ADKM: the “one-hybrid fitness for binding parS DNA” value was not above 0.2. Next, LRMS: not above 0.2. To PAMY belongs not above 0.2; to FPMR, not above 0.2.

Take DGMC: the “one-hybrid fitness for binding parS DNA” value is not above 0.2. For CWLV, the “one-hybrid fitness for binding parS DNA” value was not above 0.2. As to PRHY, the “one-hybrid fitness for binding parS DNA” value is not above 0.2. QDSM: the “one-hybrid fitness for binding parS DNA” value is not above 0.2. To AQQG belongs not above 0.2. For RNWL, the “one-hybrid fitness for binding parS DNA” value was not above 0.2. In the case of ECNM, the “one-hybrid fitness for binding parS DNA” value is not above 0.2. In the case of LVRD, the “one-hybrid fitness for binding parS DNA” value is not above 0.2. Next, SEQS: not above 0.2; NTDV: not above 0.2; YKRS: not above 0.2. Turning to TIVS, the “one-hybrid fitness for binding parS DNA” value is not above 0.2. Next, EVVS: not above 0.2; EDYR: not above 0.2; SLAG: not above 0.2.

For WGAS, the “one-hybrid fitness for binding parS DNA” value was not above 0.2.

For GVHK, the “one-hybrid fitness for binding parS DNA” value is not above 0.2. As for QSAL, the “one-hybrid fitness for binding parS DNA” value was not above 0.2. To PARH belongs not above 0.2; to QDLM, not above 0.2; to PNQT, not above 0.2.

For the variant NLTM, the “one-hybrid fitness for binding parS DNA” value is not above 0.2.

Regarding RRVL, the “one-hybrid fitness for binding parS DNA” value was not above 0.2. Turning to SERT, the “one-hybrid fitness for binding parS DNA” value was not above 0.2. As to PCLI, the “one-hybrid fitness for binding parS DNA” value is not above 0.2. Consider AVPC, for which the “one-hybrid fitness for binding parS DNA” value was not above 0.2.

Regarding KWLI, the “one-hybrid fitness for binding parS DNA” value is not above 0.2. Next, SNRD: not above 0.2; GQWI: not above 0.2. TKTM: the “one-hybrid fitness for binding parS DNA” value is not above 0.2. To LADT belongs not above 0.2; to RHIA, 0.316; to SLLC, not above 0.2.

In the case of FNGR, the “one-hybrid fitness for binding parS DNA” value was not above 0.2.

As to WNTC, the “one-hybrid fitness for binding parS DNA” value was not above 0.2. In the case of AALR, the “one-hybrid fitness for binding parS DNA” value was not above 0.2. To NHWY belongs not above 0.2; to GCGT, not above 0.2; to FDRD, 0.311.

As for ALMC, the “one-hybrid fitness for binding parS DNA” value was not above 0.2.

Regarding AGQG, the “one-hybrid fitness for binding parS DNA” value is not above 0.2. To LVVA belongs not above 0.2; to VAHA, not above 0.2. To CPGG belongs not above 0.2; to FLQR, not above 0.2. Next, TVIC: not above 0.2; NYYR: not above 0.2; TASC: not above 0.2. As to GYAR, the “one-hybrid fitness for binding parS DNA” value was not above 0.2. With GQPT, the “one-hybrid fitness for binding parS DNA” value is not above 0.2. To VETC belongs not above 0.2; to DAWT, not above 0.2. Next, GGVH: not above 0.2. To PDTY belongs not above 0.2; to PRLV, not above 0.2; to CAPT, not above 0.2. Take PIAS: the “one-hybrid fitness for binding parS DNA” value was not above 0.2. Next, VAPT: not above 0.2. To SHWH belongs not above 0.2; to RGYV, not above 0.2.
